The other results are listed elsewhere or left out.

For the assay, the target named is T1, OsWOX13 (Oryza sativa, UniProt Q5QMM3 1-267).
T1 sequence: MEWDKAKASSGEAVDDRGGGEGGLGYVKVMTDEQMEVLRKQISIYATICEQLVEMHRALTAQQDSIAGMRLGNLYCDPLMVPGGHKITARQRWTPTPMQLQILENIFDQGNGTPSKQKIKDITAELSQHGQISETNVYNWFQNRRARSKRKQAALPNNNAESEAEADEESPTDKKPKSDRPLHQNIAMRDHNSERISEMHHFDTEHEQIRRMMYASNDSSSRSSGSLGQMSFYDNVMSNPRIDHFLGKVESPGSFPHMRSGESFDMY
The assay is described as follows: protein-binding microarray (RPBM); PBS, 2% BSA, 51.3 ng/ul salmon testes DNA, 50 uM zinc acetate, 200 nM TF, 25 C, 1 h; high values mean tight binding. As to conditions: protein: recombinant; tags: N-terminal polyhistidine and DsRed monomer fusion (pET32a); label: CyDye5-dUTP incorporated in the synthesized complementary strand; 3' TTTTT single-stranded linker to array surface; dsDNA, one strand shown. The method, boiled down: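 Per-feature fluorescence intensity (arbitrary units), read on an Axon 4000B scanner, is the binding signal. Transcription factors carrying an N-terminal polyhistidine tag and DsRed fusion were expressed in E. coli BL21-CodonPlus and purified on Ni–NTA. A custom Agilent array, made double-stranded by primer extension with Cy5-dUTP and blocked with 2% BSA, was incubated with 200 nM protein in PBS, 2% BSA, salmon testes DNA and 50 µM zinc acetate at 25 °C for 1 h and then washed.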
“AGATAATTAATGCAAGGGAAATATAGATGATGGTCCATATCGGAGTCACCTAGTGCAG”: the binding signal was 20300 fluorescence intensity (a.u.). As to “ACTCTTAACCATCAGAAATTTGAATGACTAACAACTACATCGGAGTCACCTAGTGCAG”, the binding signal was 4410 fluorescence intensity (a.u.).

Consider “TGAAACTACAATTAATTTTGATCGGAACGATAATTCAATACGGAGTCACCTAGTGCAG”, for which the binding signal was 10200 fluorescence intensity (a.u.). As for “GAGGAATAATTGTCGCTCGATTGCTTGCTTGGGTTGGGTTCGGAGTCACCTAGTGCAG”, the figure is 10300 fluorescence intensity (a.u.); as for “CTAAACCGCATAATAATTTACAGAAATGCCCCTCACCTCCCGGAGTCACCTAGTGCAG”, 11300 fluorescence intensity (a.u.). Take “TTCTGTAAGTATTTACGCTTTATTTACATTTGGATATGTGCGGAGTCACCTAGTGCAG”: the binding signal was 13400 fluorescence intensity (a.u.).

“TCTAAATTTATTATAGTACTAGGATATGTCATCTGTTAGTCGGAGTCACCTAGTGCAG”: the binding signal was 20800 fluorescence intensity (a.u.). With “TTCTAATCAACATCAACTTCATAAAATTAACATTGCCAAGCGGAGTCACCTAGTGCAG”, the binding signal is 12100 fluorescence intensity (a.u.). As to “ATGATTAGAGAGAATGGGTTTAGTTATTTGTTGATCCACACGGAGTCACCTAGTGCAG”, the binding signal was 29400 fluorescence intensity (a.u.). To “CCACGAGAAAATATATGTGATTGGGCCTTGCACATTACAGCGGAGTCACCTAGTGCAG” belongs 10300 fluorescence intensity (a.u.); to “TAACCCAAATTTTGGACTAATTAAATCGTTGAGTCAACTACGGAGTCACCTAGTGCAG”, 13700 fluorescence intensity (a.u.); to “AGCGTGGAAACTCATGATTGCACTTAAAATGGGACGGATGCGGAGTCACCTAGTGCAG”, 4400 fluorescence intensity (a.u.).

In the case of “ATTTTGATTTTGATTGGTGCAGCCCAAGAATCCCATGTTCCGGAGTCACCTAGTGCAG”, the binding signal was 46600 fluorescence intensity (a.u.). To “AAAGTTAATTTACATCTTCATAAAATGGCAAGTAAATTGGCGGAGTCACCTAGTGCAG” belongs 32500 fluorescence intensity (a.u.); to “AGGATGATTTAGAAACTCGACCACAAGAGGGACCTCGAGTCGGAGTCACCTAGTGCAG”, 7010 fluorescence intensity (a.u.); to “TTTCATTCTAACATGTTAATTTCTAAGCCTTAATTAACATCGGAGTCACCTAGTGCAG”, 6780 fluorescence intensity (a.u.). Take “GAAATTAATGTCATGAATTCTCTTCTTCCATGCATGCTGACGGAGTCACCTAGTGCAG”: the binding signal is 5330 fluorescence intensity (a.u.). As for “ACTTTTGTCAACGGTGGTAATTATTACAGTGTTTTACTCCCGGAGTCACCTAGTGCAG”, the figure is 11100 fluorescence intensity (a.u.); as for “GATGATTTTGTAATTCGATGACAAGTTGAGGGACCTCGGGCGGAGTCACCTAGTGCAG”, 23200 fluorescence intensity (a.u.).

Regarding “CCTGACAGGCACACGAACCGGACGAGCACTCACCAACCCGCGGAGTCACCTAGTGCAG”, the binding signal was 19300 fluorescence intensity (a.u.). As for “GAAAGCTCTGATTATCTCCATCTACGGTTCTGCTTCAAGCCGGAGTCACCTAGTGCAG”, the figure is 4050 fluorescence intensity (a.u.); as for “GCACTTTAATTAATCTGGGGACTTCGTTGCTAGCGAGTATCGGAGTCACCTAGTGCAG”, 11800 fluorescence intensity (a.u.).

Regarding “CCTTTAATTGTTTTCTGAATTTCATACTATAAGGCATATTCGGAGTCACCTAGTGCAG”, the binding signal is 17600 fluorescence intensity (a.u.).

Take “ATTGACTAATTTCGAATGTTGGAATTATTTAATGGTCAGGCGGAGTCACCTAGTGCAG”: the binding signal was 25900 fluorescence intensity (a.u.). To “ACAAAAGCAATCAATAATATTTGCCGAACCCTATCGTCCACGGAGTCACCTAGTGCAG” belongs 5640 fluorescence intensity (a.u.); to “AATTTAGTAAATTTCATGGCAAATTGCTACTATCCGAGACCGGAGTCACCTAGTGCAG”, 4300 fluorescence intensity (a.u.); to “AATAACGCAATTAATTACGCAAGGTATATATACATACCGCCGGAGTCACCTAGTGCAG”, 28500 fluorescence intensity (a.u.). To “ATCTTTCTATACCTATACTAATTAGTCACTTATTCTCAGGCGGAGTCACCTAGTGCAG” belongs 5570 fluorescence intensity (a.u.); to “CTAGATTTGGATCATAATCAGGGCACAGCCGCCTTGGGTCCGGAGTCACCTAGTGCAG”, 22900 fluorescence intensity (a.u.); to “GTTTTGATTGAAGTTATTGAAATAATTTGTGTTGAAAAGACGGAGTCACCTAGTGCAG”, 34600 fluorescence intensity (a.u.). For the sequence “TCGATGACTCAATCATAAGGGATGATAAATAGACTTATTTCGGAGTCACCTAGTGCAG”, the binding signal was 10900 fluorescence intensity (a.u.). As for “TAAATTAATTAATTAATTAATGCGCTCTTTACCTAACTTTCGGAGTCACCTAGTGCAG”, the figure is 46700 fluorescence intensity (a.u.). As for “ATTAATTTGCCGGGAAAAGACACCTGAACGAACTGTGGGGCGGAGTCACCTAGTGCAG”, the figure is 17000 fluorescence intensity (a.u.); as for “CCCGGTAATGATAGCGTCTGGTTTTAACAAGTCACCGCCGCGGAGTCACCTAGTGCAG”, 3960 fluorescence intensity (a.u.). As for “TTTTCTTTAAATTTGGTCAAATTTAACAAAGTTTAACTAGCGGAGTCACCTAGTGCAG”, the figure is 8190 fluorescence intensity (a.u.); as for “GTGTTAGATTTTAAATGGATATTTTGGAACACTAGCCCGTCGGAGTCACCTAGTGCAG”, 5550 fluorescence intensity (a.u.).

As to “TTTGACATCATTTTGTATTATAAATCAAATCAAATTTGAACGGAGTCACCTAGTGCAG”, the binding signal was 10900 fluorescence intensity (a.u.). As for “GGTGTCTTGATTGATATGATTTAAATTATTCTTGGTCTTGCGGAGTCACCTAGTGCAG”, the figure is 58500 fluorescence intensity (a.u.); as for “AAGAAATTATAAATTAAAGATTAGTTTTGAAGACCGTGCCCGGAGTCACCTAGTGCAG”, 22400 fluorescence intensity (a.u.). Regarding “CTGAATGATTTGCATACTTCAACTGAAAGGGGCTCAGTCACGGAGTCACCTAGTGCAG”, the binding signal was 23100 fluorescence intensity (a.u.). As for “TGTATTGCCTAATTAATTTTATGCGCCTTTAATTTACTGCCGGAGTCACCTAGTGCAG”, the figure is 16800 fluorescence intensity (a.u.); as for “ATACAACGATGTGATTAGATCGTAGATTTGATAAGTGGAGCGGAGTCACCTAGTGCAG”, 16200 fluorescence intensity (a.u.).

Values taken from article PMC7819943, “Rice protein-binding microarrays: a tool to detect cis-acting elements near promoter regions in rice”.
